Screen size: about 48,000 compounds; about 120 (0.25%) were called active. Not shown: some 4% with an inconclusive outcome. The call rests on the fitted dose curve; in most records, active means well fitted activation curve with a large enough effect; inconclusive means small, poorly fitted or top-dose-only effect, or another doubt; inactive means no such curve, though single readings can be large or run the other way. The list shows a part of the results.

This experiment can be described thus: Primary qHTS for Identification of Small Molecule Activators of Huntingtin-Antisense Promoter Activity. Further: nearly all actives have a fitted effect of over 55% in size. The conditions noted are these: HEK293 HTT-AS promoter firefly luciferase reporter, 24 h; series mostly up to 57.5 µM; activity change, positive = activation: at the top concentration. In a few lines:
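Firefly luciferase readout (Dual-Glo, 10 min RT) after 24 h, 37 °C compound exposure (final up to 57.5 uM) of HEK293 reporter cells cultured 24 h beforehand; PTC124 at 50 uM final as control inhibitor; activity scaled vehicle 0%, zero RLU -100%.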
Regarding `CN(Cc1ccc(F)cc1)S(=O)(=O)c1nnc(NC(=O)c2ccccc2)s1`, the “activity change, positive = activation” value is inactive: -22%.
As for `CCCNC(=O)C1CCC(CNS(=O)(=O)c2ccc3c(c2)CC(C)N3C(C)=O)CC1` (stereo unspecified), the figure is inactive: -19.2%; as for `COc1cc(Cl)c(C)cc1NC(=O)Cn1c(C)c2cnn(-c3ccccc3)c(=O)c2c1C`, inactive: -0.338%; as for `CC(=O)Nc1c(C)nn(-c2ccccc2)c1N1CCC(C(=O)NCc2ccc(F)cc2)CC1`, inactive: 27.4%.
As for `C=C(C)Cn1c(SCC(=O)c2ccccc2)nc2sc3c(c2c1=O)CCCC3`, the figure is inactive: -21.5%.
As for `O=C(Nc1cccc(C(F)(F)F)c1)C1CCN(S(=O)(=O)c2cccs2)CC1`, the figure is inactive: -39.2%; as for `CCOCCn1c(N2CCCN(C)CC2)nc2ccccc21`, inactive: -9.93%; as for `CCn1cc2nc(SCc3cccc(C(F)(F)F)c3)n(Cc3ccc(OC)cc3)c(=O)c2n1`, inactive: -30.8%.
Consider `O=C(CNC(=O)c1ccccc1)OCc1cc(=O)n2nc(C3CC3)sc2n1`, for which the “activity change, positive = activation” value was inactive: -13.3%.
As for `O=c1c2oc3ccccc3c2n(Cc2ccc(Cl)cc2)c(=O)n1Cc1ccccc1`, the figure is inactive: -15.1%.
As for `CCC1CCCCN1C(=O)CCS(=O)(=O)c1cc2c(cc1C)NC(=O)CO2` (stereo unspecified), the “activity change, positive = activation” value was inactive: -8.1%.
In the case of `CC=CCC=CCCC(=O)[C@H]1O[C@@H]1C(N)=O`, the “activity change, positive = activation” value is inactive: -3.91%.
Regarding `Cc1cc(C)cc(-n2c(SCC(=O)N3CCCCCC3)nc3c([nH]c4ccccc43)c2=O)c1`, the “activity change, positive = activation” value was inactive: -5.55%.
In the case of `CC1(C)OC(=O)Nc2ccc(Br)cc21` it was inactive: -2.87%; in that of `CCS(=O)(=O)c1ncc(Cl)c(C(=O)NCc2ccccc2)n1`, inactive: -94.4%.
`O=C(Nc1cc(F)ccc1F)c1ccc(CN2CC(=O)N3CCCCC3C2=O)cc1` (stereo unspecified): the “activity change, positive = activation” value is inactive: -7.93%.
As for `COc1ccc(-c2cc(=O)oc3c4c(ccc23)OCN(Cc2ccccc2)C4)cc1`, the figure is inactive: -18.6%; as for `CCc1c(C)sc2c1CCN(C(=O)Nc1cc(C)ccc1C)C2c1ccc(OC)cc1` (stereo unspecified), inactive: -0.871%; as for `CC[C@H](C)C(=O)O[C@H]1C[C@H](O)C=C2C=C[C@H](C)[C@H](CC[C@@H](O)C[C@@H](O)CC(=O)O)[C@H]21`, inactive: -0.879%.
As for `COc1ccc(OC)c(CCNC(=O)Cn2nc(C)n3c(cc4sccc43)c2=O)c1`, the figure is inactive: -10%; as for `COc1ccc(-n2ncc(C(=O)NCCN3CCOCC3)c2C2CCN(C(=O)OC(C)(C)C)CC2)cc1`, inactive: -1.31%; as for `Cc1nc(-c2cccc(S(=O)(=O)N3CCC(C(=O)NCc4ccccc4Cl)CC3)c2)no1`, inactive: -29.4%.
In the case of `Cn1nc(-c2ccccc2F)c2cc(C(=O)NCc3cccc(Cl)c3)sc21` it was inactive: -32.5%.
Regarding `Cc1cc(C)cc(NC(=O)c2cc(S(=O)(=O)N3CCCC3)ccc2F)c1`, the “activity change, positive = activation” value is inactive: -17.7%.
As for `Cc1cccc(CSc2nnc(CCCCCN)o2)c1`, the figure is inactive: -82.6%; as for `Cc1ccc(C)c(NC(=O)c2nnn(Cc3ccc(F)cc3Cl)c2N)c1`, inactive: -23.8%; as for `CCC1Oc2ccccc2N(CC(=O)NCCc2ccc(OC)c(OC)c2)C1=O` (stereo unspecified), inactive: -19%.
Turning to `COc1cc(OC)c(NC(=O)N2CCc3cc(S(=O)(=O)N4CCC(C)CC4)ccc32)cc1Cl`, the “activity change, positive = activation” value was inactive: -5.32%.
In the case of `O=c1oc2ccc3ccccc3c2cc1-c1nnc(Nc2cccc(C(F)(F)F)c2)s1` it was inactive: -7.38%; in that of `O=C(c1cc2c(s1)-c1ccccc1OC2)N1CCN(c2ccc(F)cc2)CC1`, inactive: -20.5%.
In the case of `COc1cc2c(cc1NC(=O)COc1ccc(Cl)cc1)oc1ccccc12` it was inactive: 14.3%; in that of `COc1ccc(NC(=O)Cn2c(=O)n(Cc3ccco3)c(=O)c3oc4ccccc4c32)cc1Cl`, inactive: -16.5%; in that of `COc1ccc(-n2ncc3c2ncn2nc(Cc4ccccc4)nc32)cc1`, inactive: -2.34%.
In the case of `Cc1ccccc1CNCc1c(C(=O)O)c(C)n(Cc2ccc(F)cc2Cl)c1C` it was inactive: -13.3%; in that of `CC(=O)Nc1ccc(C(=O)Nc2ccc3c(c2)N(C2CCCC2)C(=O)c2ccccc2S3)cc1`, inactive: -46%; in that of `Cc1nnc(N2CCC(C(=O)NC(C)C)CC2)c2nn(-c3ccccc3)c(C)c12`, inactive: -7.6%.
For `Cc1cccn2c(=O)c(-c3nnn[nH]3)cnc12`, the “activity change, positive = activation” value is inactive: 5.15% [at 25.1 µM, percent change from vehicle, -100% = no light].
With `Clc1ccccc1CN1CCc2nc(N3CCN(c4ncccn4)CC3)ncc2C1`, the “activity change, positive = activation” value was inactive: -29.9%.
As for `O=C(Nc1ccc(F)cc1)c1cc2cc3ccc(Cl)cc3nc2o1`, the figure is inactive: -2.86%; as for `Cc1oc(-c2ccccc2Cl)nc1CS(=O)(=O)CC(=O)NC(C)c1ccccc1` (stereo unspecified), inactive: -26.5%; as for `Cc1ccc2onc(CNC(=O)NCc3ccccc3)c2c1`, inactive: 3.15%.
In the case of `CCC(C(=O)Nc1ccccc1OC)n1c(C(=O)OC)cc2sc(Cl)cc21` (stereo unspecified) it was inactive: -11.7%; in that of `CCOCCCNC(=O)c1ccc2c(=O)n(CCc3ccc(OC)c(OC)c3)c(=O)[nH]c2c1`, inactive: -11.7%; in that of `CC(=O)N1CCc2cc(S(=O)(=O)NC(CC(C)C)C(=O)NCCc3cccc(C)c3)ccc21` (stereo unspecified), inactive: 19%.
In the case of `CCOc1ccccc1CNC(=O)CSc1nnc(C)c2c(C)n(-c3ccccc3)nc12` it was inactive: -24.4%; in that of `O=c1[nH]c2ccc(NCc3ccc(-c4ccc(F)cc4)o3)cc2[nH]1`, inactive: -24.1%; in that of `CC1CCC(NC(=O)Cn2ncc3c4ccccc4n(Cc4ccc(F)cc4)c3c2=O)CC1` (stereo unspecified), inactive: -3.61%.
On to `c1ccc2c(c1)ncc1nncn12`, for which the “activity change, positive = activation” value is inactive: -11.4%.
Regarding `Cc1ccc(CN(C(=O)COc2ccc([N+](=O)[O-])cc2)c2ccccn2)o1`, the “activity change, positive = activation” value was inactive: -10.2%.
As for `CCC1CCCCN1S(=O)(=O)c1cc2c(cc1C)NC(=O)CO2` (stereo unspecified), the figure is inactive: -26.4%.
In the case of `CC(=O)c1ccc(NC(=O)CSc2ccc3nnc(CCNS(=O)(=O)c4ccc(C)cc4)n3n2)cc1` it was inactive: -2.36%.
As for `Cc1ccc(Nc2ncc(C(=O)Nc3ccc(F)cc3F)c3ccccc23)cc1Cl`, the figure is inactive: -14.9%.
`CC(=O)c1cccc(NC(=O)C2CCN(S(=O)(=O)c3ccccc3)CC2)c1`: the “activity change, positive = activation” value is inactive: 3%.
As for `COc1ccc(CNC(=O)c2nn(C)c3c2CS(=O)(=O)c2ccccc2-3)cc1`, the figure is inactive: -13.4%.
For the compound `CC1=C(C(=O)O)N2C(=O)[C@@H](NC(=O)[C@H](N)c3ccccc3)[C@H]2SC1`, the “activity change, positive = activation” value is inactive: -0.73%.
As for `O=C(COc1ccccc1)Nc1nnc(SCc2cc(=O)n3cc(Cl)ccc3n2)s1`, the figure is inactive: 1%; as for `COc1ccc(CCNC(=O)CCS(=O)(=O)c2cc3c(cc2Cl)NC(=O)CO3)cc1OC`, inactive: -12.4%; as for `CCc1nnc(SCC(=O)Nc2cccc(C(F)(F)F)c2)c2cc3oc(C)cc3n12`, inactive: -39.3%.
In the case of `CCCc1nn2cc(-c3ccc(C)c(C)c3)nc2s1` it was inactive: -35.9%.
In the case of `CCOC(=O)Cc1c(C)nc2c(-c3ccc(Cl)cc3)c(C(F)(F)F)nn2c1C` it was inactive: -16.5%; in that of `COc1ccc(-c2noc(CSc3nnc(Cc4ccccc4)n3-c3cccc(C)c3)n2)cc1`, inactive: -37.7%; in that of `COc1ccc(/C=C/C(=O)Nc2ccc3nc4c(c(Nc5ccc(OC)c(OC)c5)c3c2)CCCC4)cc1`, inactive: -94.2%.
For the compound `CC1=C(C(=O)NCc2ccccc2F)C2(CCCCC2)OC1=O`, the “activity change, positive = activation” value is inactive: -8.15%.
As for `COCCNC(=O)c1nn(-c2ccc(C)cc2)c(=O)c2c1c1ccccc1n2C`, the figure is inactive: -8.47%; as for `CO[C@@H]1C(N(C)C(=O)c2ccccc2)C[C@H]2O[C@]1(C)n1c3ccccc3c3c4c(c5c6ccccc6n2c5c31)C(=O)NC4=O` (stereo partly specified), inactive: -34.1%.
In the case of `Cc1ccc(CCNC(=O)C2CCCN(c3nnc(C)c4c(C)n(-c5ccccc5)nc34)C2)cc1` (stereo unspecified) it was inactive: -10.2%; in that of `O=C(Nc1ccccc1Cl)N1CCC(CN2CCCC2)CC1`, inactive: -13.8%; in that of `CC1=C(c2ccc(F)cc2)S(=O)(=O)N=C1N1CCC(C(=O)NCCc2cccc(C)c2)CC1`, inactive: -20%.
Turning to `COc1cccc(-c2nc(CS(=O)(=O)CC(=O)NCc3cccc(Cl)c3)c(C)o2)c1`, the “activity change, positive = activation” value is inactive: -19.8%.
As for `Cc1ccc(CSc2ncc(Cl)c(C(=O)Nc3nnc(C)s3)n2)cc1`, the figure is inactive: -30.8%; as for `Cc1ccc(NC(=O)CC2Oc3ccccc3NC2=O)cc1C` (stereo unspecified), inactive: -3.66%; as for `COc1ccc(-c2cnnn2-c2ccc(NC(=O)c3ccccc3OC)cc2)cc1`, inactive: -12.7%.
In the case of `COc1ccc(CCNC(=O)CN2C(=O)COc3ccc(S(=O)(=O)N4CCCC4)cc32)c(OC)c1` it was inactive: -13.9%; in that of `Cc1c(C(=O)NCc2cccc(Cl)c2)sc2nc3n(c(=O)c12)CCCC3`, inactive: 21.1%.
In the case of `Cc1c(C(=O)NCc2cccc(Br)c2)oc2ccc3c(c12)C(=O)CC(C)(C)O3` it was inactive: 22.3%.
In the case of `CCN(CC)CCCNC(=O)c1ccc(Cn2c(SCc3ccccc3)nc3cccnc32)cc1`, the “activity change, positive = activation” value is inactive: 15%.
On to `Cn1c(=O)n(Cc2c(F)cccc2Cl)c(=O)c2c1nc1n2CCN1c1ccc(F)cc1`, for which the “activity change, positive = activation” value is inactive: -6.75%.
In the case of `COc1ccc(-c2nc3sc(CCNC(=O)C(=O)Nc4cccc(NC(C)=O)c4)c(C)n3n2)cc1` it was inactive: -17.4%; in that of `Nc1nn(-c2ccccc2)nc1C(=O)OCc1ccc(Cl)cc1`, inactive: -5%; in that of `COc1c(C)cccc1C(=O)Nc1ccc(-c2nc3ccccc3s2)c(Cl)c1`, inactive: -18.2%.
As for `CCNC(=O)C1CCN(S(=O)(=O)c2ccc3c(c2)CCCN3C(C)=O)CC1`, the figure is inactive: -11.7%; as for `CCOc1cc(C(=O)Nc2ccc(-c3cn4cccnc4n3)cc2)cc(OCC)c1OCC`, inactive: -17.3%; as for `CCCN(CCC)c1ccc(C2N=C(N)Nc3nc4ccccc4n32)cc1` (stereo unspecified), inactive: -44.2%.
As for `O=C(NCc1ccccc1)c1ccc(NC(=O)N2CC3CCCN3c3ccccc32)cc1` (stereo unspecified), the figure is inactive: -16.2%.
Consider `CCCCNC(=O)CCCCCn1c(=O)[nH]c2ccccc2c1=O`, for which the “activity change, positive = activation” value is inactive: -9.47%.
In the case of `Cc1ccc(S(=O)(=O)c2nnn3c2nc(NCc2ccc4c(c2)OCO4)c2sccc23)cc1C` it was inactive: -27.3%.
As for `Cc1ccc(C)c(N2CCN(S(=O)(=O)c3cc(C(=O)Nc4ccc(Oc5ccccc5)cc4)ccc3F)CC2)c1`, the figure is inactive: -40.7%.
In the case of `Cc1nc2ccccn2c(=O)c1NC(=O)c1ccc(F)c(F)c1`, the “activity change, positive = activation” value was inactive: 1.73%.
In the case of `Cc1cccc(NC(=O)C2CCCN2S(=O)(=O)c2ccc3nc(-c4ccccc4)[nH]c3c2)c1` (stereo unspecified) it was inactive: -23.8%; in that of `Cc1ccc2c(c1)c1c(c(=O)n(-c3ccccc3)c(=O)n1CC(=O)NCC1CCCO1)n2C` (stereo unspecified), inactive: -5.73%; in that of `Cc1ccccc1OCCSc1nc2ccc(NC(=O)c3cccc(F)c3)cc2s1`, inactive: -35.6%.
In the case of `O=C(NCc1ccc2c(c1)CCN2C(=O)c1ccccc1)Nc1cccc(C(F)(F)F)c1` it was inactive: -46.4%; in that of `COc1cc2ncc3c(-c4ccc(C)cc4)nn(-c4ccc(F)cc4F)c3c2cc1OC`, inactive: -4.61%; in that of `CN(C)CCCNc1cc(N2CCN(C3CCCCC3)CC2)c2noc3c2c1C(=O)c1ccccc1-3`, inactive: -18.1%.
As for `COc1ccc(Cn2ccnc2SCC(=O)Nc2nc3ccccc3s2)cc1`, the figure is inactive: -17.6%; as for `Cc1ccc(NC(=O)CN2C(=O)c3cccnc3Oc3ccc(Cl)cc32)cc1`, inactive: -39.8%.

For the origin of these results see PubChem BioAssay AID1508624 (National Center for Advancing Translational Sciences (NCATS), 2021).
